Test [1] relates to RAW-Dual. Nature of the test: NF-kB SEAP reporter activity, fold change vs agonist alone; cytotoxicity flag (confluency mask): not cytotoxic; higher = enhanced NF-kB activity. Summed up:
(§1)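 Cytotoxic wells were those whose IncuCyte confluency was below 70% of agonist controls in both mask sets. The cells were RAW-Dual macrophages at 50,000 cells/well in DMEM on 384-well plates, dosed with 50 nL of library stock by pin tool, stimulated with a PRR agonist 1 h later, and kept at 37 °C, 5% CO2 for 20 hours. IRF and NF-κB reporter activity, as fold change over agonist-alone wells, came from supernatant read by QuantiLuc luminescence and QuantiBlue absorbance, respectively.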

Test [2] has as its system RAW-Dual. As to the kind of experiment: NF-kB SEAP reporter activity, fold change vs agonist alone; higher = enhanced NF-kB activity. The gist of the method:
as §1

Test [3] has as its system RAW-Dual. Nature of the test: NF-kB SEAP reporter activity, fold change vs agonist alone; cytotoxicity flag (confluency mask): cytotoxic (confluency <70% of control); higher = enhanced NF-kB activity. Summed up: as §1
Where [4] appears, read: agonist: ODN 1826 (TLR9) 0.5 ug/mL.
Setting [5] is: agonist: Pam2CSK4 (TLR2/6) 0.1 ug/mL.
The mark [6] stands for this setting: agonist: Pam3CSK4 (TLR2/1) 0.1 ug/mL.
Where [7] appears, read: library stock concentration (final ~1000-fold dilution): 10 mM, cytotoxicity flag (confluency mask): not cytotoxic, agonist: Imiquimod (TLR7) […].
Setting [8] is: library stock concentration (final ~1000-fold dilution): 10 mM, cytotoxicity flag (confluency mask): not cytotoxic, agonist: MPLA (TLR4) […].
The mark [9] stands for this setting: library stock concentration (final ~1000-fold dilution): 10 mM water, cytotoxicity flag (confluency mask): not cytotoxic, agonist: Imiquimod (TLR7) […].
Setting [10] is: library stock concentration (final ~1000-fold dilution): 10 mM water, cytotoxicity flag (confluency mask): not cytotoxic, agonist: MPLA (TLR4) […].

In all, about 2,900 compounds were measured (“NF-kB SEAP reporter activity, fold change vs agonist alone”: median about 0.99, highest 2% from about 2.6 on). This is one part of the list.

On to `CC(C)(C)c1cc(O)c(C(C)(C)C)cc1O` (library stock concentration (final ~1000-fold dilution): 10 mM), for which the “NF-kB SEAP reporter activity” value with RAW-Dual [1] (agonist: LPS (TLR4) 0.1 ug/mL) came to 0.802; in the test with RAW-Dual [1] (setting [4]), 0.415; with RAW-Dual [1] (setting [5]), 0.179; with RAW-Dual [1] (setting [6]) it was 0.278.

Turning to `CC(C)(C)c1cc(O)c(C(C)(C)C)cc1O`, the “NF-kB SEAP reporter activity” value in the test on RAW-Dual [2] (setting [7]) worked out at 1.42; in the test with RAW-Dual [2] (setting [8]), 1.37.

Take `CC(C=CC1=C(C)CCCC1(C)C)=CC=CC(C)=CC(=O)O`: the “NF-kB SEAP reporter activity” value in the test on RAW-Dual [2] (library stock concentration (final ~1000-fold dilution): 1 mM, cytotoxicity flag (confluency mask): not cytotoxic, agonist: Imiquimod (TLR7) […]) was 1.41; in the test on RAW-Dual [2] (library stock concentration (final ~1000-fold dilution): 1 mM, cytotoxicity flag (confluency mask): not cytotoxic, agonist: MPLA (TLR4) […]), 0.816.

Consider `CC(C=CC1=C(C)CCCC1(C)C)=CC=CC(C)=CC(=O)O` (library stock concentration (final ~1000-fold dilution): 1 mM), for which the “NF-kB SEAP reporter activity” value amounted to 0.67 in the test on RAW-Dual [1] (agonist: LPS (TLR4) 0.1 ug/mL), 1.25 with RAW-Dual [1] (setting [4]), 0.689 in the test on RAW-Dual [1] (setting [5]) and 0.773 in the test with RAW-Dual [1] (setting [6]).

As for `O=C(O)c1ccnc(C(=O)O)c1` (library stock concentration (final ~1000-fold dilution): 10 mM), the “NF-kB SEAP reporter activity” value in the test with RAW-Dual [1] (agonist: LPS (TLR4) 0.1 ug/mL) came to 1.06; in the test with RAW-Dual [1] (setting [4]) it was 0.964; in the test with RAW-Dual [1] (setting [5]) it was 1.02; with RAW-Dual [1] (setting [6]), 0.992.

Take `O=C(O)c1ccnc(C(=O)O)c1`: the “NF-kB SEAP reporter activity” value in the test with RAW-Dual [2] (setting [7]) came to 0.985; in the test on RAW-Dual [2] (setting [8]) it was 1.07.

In the case of `CC(=O)NC(CC(=O)O)C(=O)NC(CCC(=O)O)C(=O)NC(C(=O)NC(C=O)CC(=O)O)C(C)C` (stereo not drawn), the entries for the “NF-kB SEAP reporter activity” value with RAW-Dual [2] (setting [9]) and in the test with RAW-Dual [2] (setting [10]) were 0.951 and 1.04, respectively.

As for `CC(=O)NC(CC(=O)O)C(=O)NC(CCC(=O)O)C(=O)NC(C(=O)NC(C=O)CC(=O)O)C(C)C` (stereo not drawn) (library stock concentration (final ~1000-fold dilution): 10 mM water), the “NF-kB SEAP reporter activity” value in the test on RAW-Dual [1] (agonist: LPS (TLR4) 0.1 ug/mL) is 1.18; in the test with RAW-Dual [1] (setting [4]), 1.15; in the test with RAW-Dual [1] (setting [5]), 1.28; with RAW-Dual [1] (setting [6]), 1.08.

Consider `Cl.Clc1ccccc1CN1CCc2sccc2C1` (library stock concentration (final ~1000-fold dilution): 10 mM water), for which the “NF-kB SEAP reporter activity” value in the test on RAW-Dual [1] (agonist: LPS (TLR4) 0.1 ug/mL) stood at 1.21; in the test with RAW-Dual [1] (setting [4]), 1.03; with RAW-Dual [1] (setting [5]), 1.11; in the test with RAW-Dual [1] (setting [6]) it was 1.43.

In the case of `Cl.Clc1ccccc1CN1CCc2sccc2C1`, the “NF-kB SEAP reporter activity” value was 0.922 with RAW-Dual [2] (setting [9]) and 1.2 in the test with RAW-Dual [2] (setting [10]).

Consider `COc1cc2c3cc1Oc1c(OC)c(OC)cc4c1C(Cc1ccc(O)c(c1)Oc1ccc(cc1)CC3N(C)CC2)N(C)CC4.Cl.Cl` (stereo not drawn) (library stock concentration (final ~1000-fold dilution): 10 mM), for which the “NF-kB SEAP reporter activity” value came to 1.44 in the test with RAW-Dual [1] (agonist: LPS (TLR4) 0.1 ug/mL), 0.2 in the test with RAW-Dual [1] (setting [4]), 1.08 in the test on RAW-Dual [1] (setting [5]) and 1.19 with RAW-Dual [1] (setting [6]).

`COc1cc2c3cc1Oc1c(OC)c(OC)cc4c1C(Cc1ccc(O)c(c1)Oc1ccc(cc1)CC3N(C)CC2)N(C)CC4.Cl.Cl` (stereo not drawn): the “NF-kB SEAP reporter activity” value in the test on RAW-Dual [2] (setting [7]) is 0.379; in the test on RAW-Dual [2] (setting [8]) it was 1.37.

With `Nc1ccn(C2OC(CO)C(O)C2O)c(=O)n1` (stereo not drawn), the figures for the “NF-kB SEAP reporter activity” value in the test with RAW-Dual [2] (setting [9]) and with RAW-Dual [2] (setting [10]) were 1.46 and 1.33, respectively.

Regarding `Nc1ccn(C2OC(CO)C(O)C2O)c(=O)n1` (stereo not drawn) (library stock concentration (final ~1000-fold dilution): 10 mM water), the “NF-kB SEAP reporter activity” value in the test with RAW-Dual [1] (agonist: LPS (TLR4) 0.1 ug/mL) was determined as 1.92; with RAW-Dual [1] (setting [4]), 1.7; in the test on RAW-Dual [1] (setting [5]), 1.85; with RAW-Dual [1] (setting [6]) it was 1.83.

Regarding `COc1ccc2cc1Oc1ccc(cc1)CC1c3cc(c(OC)cc3CCN1C)Oc1c(O)c(OC)cc3c1C(C2)N(C)CC3` (stereo not drawn), the “NF-kB SEAP reporter activity” value was 0.618 with RAW-Dual [2] (library stock concentration (final ~1000-fold dilution): 10 mM, cytotoxicity flag (confluency mask): cytotoxic (confluency <70% of control), agonist: Imiquimod (TLR7) […]) and 2.39 in the test on RAW-Dual [2] (library stock concentration (final ~1000-fold dilution): 10 mM, cytotoxicity flag (confluency mask): cytotoxic (confluency <70% of control), agonist: MPLA (TLR4) […]).

Consider `COc1ccc2cc1Oc1ccc(cc1)CC1c3cc(c(OC)cc3CCN1C)Oc1c(O)c(OC)cc3c1C(C2)N(C)CC3` (stereo not drawn) (library stock concentration (final ~1000-fold dilution): 10 mM), for which the “NF-kB SEAP reporter activity” value was found to be 1.81 in the test with RAW-Dual [3] (agonist: LPS (TLR4) 0.1 ug/mL), 0.241 in the test with RAW-Dual [3] (setting [4]), 2.15 with RAW-Dual [3] (setting [5]) and 1.31 with RAW-Dual [3] (setting [6]).

In the case of `Cn1cc(-c2[nH]c3cc(NC(=O)C(N)C4CCCCC4)cc4c3c2C=NNC4=O)cn1` (stereo not drawn) (library stock concentration (final ~1000-fold dilution): 10 mM), the results for the “NF-kB SEAP reporter activity” value with RAW-Dual [1] (agonist: LPS (TLR4) 0.1 ug/mL) and in the test on RAW-Dual [1] (setting [4]) were 3.51 and 2.74, respectively.

`CC1COC2(CCN(c3nc(=O)c4cc(C(F)(F)F)cc([N+](=O)[O-])c4s3)CC2)O1` (stereo not drawn): the “NF-kB SEAP reporter activity” value came to 0.984 in the test on RAW-Dual [2] (setting [7]) and 1.03 with RAW-Dual [2] (setting [8]).

For the molecule `CC1COC2(CCN(c3nc(=O)c4cc(C(F)(F)F)cc([N+](=O)[O-])c4s3)CC2)O1` (stereo not drawn) (library stock concentration (final ~1000-fold dilution): 10 mM), the “NF-kB SEAP reporter activity” value with RAW-Dual [1] (agonist: LPS (TLR4) 0.1 ug/mL) was 2.1; in the test with RAW-Dual [1] (setting [4]) it was 0.99; in the test on RAW-Dual [1] (setting [5]), 1.37; with RAW-Dual [1] (setting [6]) it was 1.18.

For the molecule `O=C1C(Cl)=C(N2CCOCC2)C(=O)N1c1ccc(Cl)c(Cl)c1`, the “NF-kB SEAP reporter activity” value was 0.893 with RAW-Dual [2] (setting [7]) and 0.869 in the test on RAW-Dual [2] (setting [8]).

In the case of `O=C1C(Cl)=C(N2CCOCC2)C(=O)N1c1ccc(Cl)c(Cl)c1` (library stock concentration (final ~1000-fold dilution): 10 mM), the “NF-kB SEAP reporter activity” value in the test with RAW-Dual [1] (agonist: LPS (TLR4) 0.1 ug/mL) was 0.429; with RAW-Dual [1] (setting [4]) it was 0.739; in the test on RAW-Dual [1] (setting [5]) it was 0.54; with RAW-Dual [1] (setting [6]) it was 0.425.

For `Cc1ccc(-c2cc(C(F)(F)F)nn2-c2ccc(S(N)(=O)=O)cc2)cc1`, the “NF-kB SEAP reporter activity” value amounted to 1.37 in the test with RAW-Dual [2] (setting [7]) and 1.42 in the test on RAW-Dual [2] (setting [8]).

As for `Cc1ccc(-c2cc(C(F)(F)F)nn2-c2ccc(S(N)(=O)=O)cc2)cc1` (library stock concentration (final ~1000-fold dilution): 10 mM), the “NF-kB SEAP reporter activity” value stood at 0.486 in the test with RAW-Dual [1] (agonist: LPS (TLR4) 0.1 ug/mL), 0.625 with RAW-Dual [1] (setting [4]), 0.358 in the test with RAW-Dual [1] (setting [5]) and 0.371 in the test on RAW-Dual [1] (setting [6]).

On to `O=C(NCCN1CCOCC1)Nc1nc2ccc(Sc3nnc4ccc(-c5ccc(F)cc5)nn34)cc2s1`, for which the “NF-kB SEAP reporter activity” value is 0.968 in the test on RAW-Dual [2] (setting [7]) and 1.03 in the test with RAW-Dual [2] (setting [8]).

Consider `O=C(NCCN1CCOCC1)Nc1nc2ccc(Sc3nnc4ccc(-c5ccc(F)cc5)nn34)cc2s1` (library stock concentration (final ~1000-fold dilution): 10 mM), for which the “NF-kB SEAP reporter activity” value with RAW-Dual [1] (agonist: LPS (TLR4) 0.1 ug/mL) came to 0.775; in the test with RAW-Dual [1] (setting [4]), 0.868; in the test with RAW-Dual [1] (setting [5]), 0.991; in the test on RAW-Dual [1] (setting [6]), 0.922.

Take `CC1(C)SC2CC(=O)N2C1C(=O)OCOC(=O)C1N2C(=O)C(NC(=O)C(N)c3ccccc3)C2S(=O)(=O)C1(C)C.Cc1ccc(S(=O)(=O)O)cc1` (stereo not drawn) (library stock concentration (final ~1000-fold dilution): 10 mM): the “NF-kB SEAP reporter activity” value was 1.26 with RAW-Dual [1] (agonist: LPS (TLR4) 0.1 ug/mL), 0.797 with RAW-Dual [1] (setting [4]), 1.02 in the test with RAW-Dual [1] (setting [5]) and 0.873 in the test on RAW-Dual [1] (setting [6]).
